# Experimental data: the supplement of paper PMC12632987
# The full ranking holds about 4,500 sequences; the median of “median log2 fold change of GCK-ALFA target abundance (FLAG IP / Myc IP barcode read proportion)” is about 0.078, and the lowest 2% start at about -0.6. Some of the results follow.
# B1: GBRAP_55_6439 (protein)
# chain: MTDEEIREEAIEDLSDMLKLSYEDKDTFVKLAEALAAELEPGESVTVEIELEREEDLEIALASANAAKKALEAKGYEVKIEVKKNEDGTYVLTLTITKPK
# B2: GBRAP_96_7098 (protein)
# chain: ELEKAKKIVKEALKALDTDEEKAKELAKELLKFPVEVIVKALVEEVKTPEEAYKLTKILLSLGDPKAEEVALEFAEESDGERSKAVIEAMKEYEKEKEAA
# B3: GBRAP_128_3290 (protein)
# chain: SAEERRARYRARLRAMLALSPEEFRAALLELALEAAAEGLEAVELFVEALLELAPEMTVEQLRAAAEALDEARESVDPESAALLADAADDLLLRAEELEE
# B4: GBRAP_35_5619 (protein)
# chain: NIDEETLELSLDVLEDAVEALEEEDAKKLAPALVKIAESFLKILEQEKKNVKNAKEYVKKAIELLKKAIEILSKYPELKEEKEKLEEIKKKLEELLKELE
# B5: GBRAP_184_5342 (protein)
# chain: GTIEAHIENKSLEETVKEAEKYIKEAAEKGEDLIISVDASGFSDEELVELVEKIGKIAKEEGVKNLTLGLDKAVDEETADKLIEVADKYGIKLTVALEDE
# B6: GBRAP_160_4160 (protein)
# chain: SEEVEELIKEINEIFEEMKKDIEGESIEQRQVIIAGYMGEIIMLLFESPVVSEEVVDFAVELEDELVATLKANPDLTLEEIKALIDEVREKILKKIKESA
# B7: GBRAP_160_4254 (protein)
# chain: SEEIEEIAEELREEMEEIIAEAAELTPEELAALIAGTIGSAIMELIEKGLITDEQEDELIELRDEAVETALRKEELTLEELKRRLREILEKMLEVLEKAK
# B8: GBRAP_11_2834 (protein)
# chain: EKEKLKELAKKAEEVAKKLEKLIESGNPSEEELKELLKLAEELLKEVKEYGDESLIKIAEIMLEEIKKAIEDPENQKEYLEHALAFARVLEGQYLLELEE
# B9: GBRAP_160_4583 (protein)
# chain: SAALEKAKKKVDEIGEEAKELVKGQTPEERANIVAVAGGELIMELSELPEVSDELLDEVDEIYDELVETILSNPNITEEEVKKLIEEAGEKIKKALDESF
# B10: GBRAP_128_3458 (protein)
# chain: STEEVVAWTRETMEKAKEASPEEARELFEELAERLLTLSLEEVEAAVEAIIERLPELSAEKLEILAEVFDEARPRFTPEKAALVAEVISEALLLAEELEE
# B11: GBRAP_160_4433 (protein)
# chain: SATLDKAIANIKALTDEAAEMMAGQSAAQRQTVVRVMEGEILLELEDLGLLTDELDALIEASTAAIVADIEANPDISQAELTARLQAHADAVAALLKKLF
# B12: GBRAP_184_5270 (protein)
# chain: TVVRVELEAATAEEAIAALRAAAAAARAAGAQLELTILLRGASVEGVIALLDLLAELKAEGVVRAATVGVELDATEEEVDTLVAAADAAGVRLVIALPEE
# B13: GBRAP_14_3811 (protein)
# chain: KEKLIEEIKKILEELRRELVEELGLDEKEVRELIERAIKEIEEAIETKENPEEEIEKIMDELRAEIEKLAAAKGADVAAGARALVDDAEYEIDEAIEKYS
# B14: GBRAP_160_4613 (protein)
# chain: SAKMEKLKKEVNELFEEAKEMVKGETPENRATIVDVTIGQIILLAEELEVLSDESLEKIDEIGDELVDYIKENPDLTDEEIEELIDEAREKILKIIDEDE
# B15: GBRAP_78_6696 (protein)
# chain: EVEELLEELLKKIGEFATELSKIDTPLAQEALGHLVDAADYVHEAIETGGDEEHLKEANKHLKKALELLKQLDPELAERFEKEVLELLKEIAEKLGIELE
# B16: GBRAP_128_3167 (protein)
# chain: SSEETVEKVRKLAEEMIKASKEEAKKLAKEIADIFLEADLETAEKIAEVIIELLPKMTEEHLEILMDVLREKLPLFTPEKQELANEVMVAAGEQILELEE
# B17: GBRAP_53_6391 (protein)
# chain: GEERLEELIEELNRLIEELKTADPETAIKLAREAVELLLELAELGLPEEELVELVRRFAEAARPKPELEPVLVELAKRLAALGREEAAAEVAEALVEELE
# B18: GBRAP_11_2857 (protein)
# chain: KKEKLKEAAELARKAAEALEKLLKEGVDDKELQKKIEELLKKLLELVKEYGDPDLIKLAEIALENFQKAKKDPKNAEKYIKEALAAVRVLEGNLLLEIDE
# B19: GBRAP_106_2563 (protein)
# chain: SKLEELKEFFEKTLKEEMAKVPAVTAEIVARFGEDAAEATAAVTAHAFDYVNNKVAEKMKSLGIDNPELIKRLRDTLHELKDAPLEEQIEAGKKVIEEGF
# B20: GBRAP_160_4036 (protein)
# chain: DPKLEKLKEFAKEVFEEAKELVEGETVEQAANIVAVAAGEVIMEAEELGIDDDELEDFIDEVGDEAVAYLLANPDLTEEEIKKLIEEAREKILEEIEKRS
# B21: GBRAP_160_4547 (protein)
# chain: SEKVEELIKDLKERTEFIKSLVDEVSIDELINAVDVEFGSFILEGVELGVLSDELEEELDEIRDELIKKLKENKNASPEEKKKMIEEATEKMIEALKKES
# B22: GBRAP_172_5009 (protein)
# chain: EPVLIRVVIDSEDAEEAIEEIRRVLEEASKKKDAIVAIAVRVSDEEKAERVEEESERLAKKYPNVVVEIAVTYDPSLDLEKIAEALLLEAEEEYEERKKK
# B23: GBRAP_11_2635 (protein)
# chain: KKEIIEKAAKLAAEAEKLLEKLLKEGVDNEKLLEELEKKLEELKKLVEKLGNKALINEVEVAEELLKKLKEDPENAEFYANLLLAQIRIIKADLEELLEE
# B24: GBRAP_184_5121 (protein)
# chain: AVEHRSVEGEKAEELIAKATAVVEEAAAAGKKLVLHVFAKNMSVEEIIRVIEHLGALKKAYPQVEIILHVEDERSEEEVDKIVEAADKAGVRVVIALKEE
# B25: GBRAP_160_4234 (protein)
# chain: SEVVEKLVKVVRDTFLEALELIEGESLEERKVILDVAVGEVILEASEIEGVTDEMEEVVDEMSEKLAEELLKARDKSLEEKKKLVEKMVEKLRKELEKLA
# B26: GBRAP_160_4391 (protein)
# chain: MEAFKKLAEEVKEILDEAIKLIEGESKEERRVIVDVALGEILLAAFSNDALSDEQEEEIAEILDRGRERIREAIEEGLEAVVKELERTREELLEAIEKSA
# B27: GBRAP_125_3088 (protein)
# chain: AEAALAADLRTFALALGLSEADAAEAAALAAASSVRQTLYAIFAAEGWEELAELVEKLTEEQARAVLRALAADLAANPDLSVEEVKARARALIEEALAAA
# B28: GBRAP_24_5420 (protein)
# chain: KKVKVTIDIIANLSPENEKKAQELAKEVAEKIKTLTPEEAAKAVKEFLEKVASLVDNELSVVTLEIETDEEKAEAIIDAALEAEKEIGNVKVVIGTEDLE
# B29: GBRAP_78_6595 (protein)
# chain: KVEELLDKAMEELGKAEKLAAKLPEEKANEILDELVEAASYLLEAEENGYDLKYFEEALKELKKALELAKKLDLPEAPELIKELEKAIEYLEKAIEELKK
# Target: GABARAP, O95166
# Assay: median log2 fold change of GCK-ALFA target abundance (FLAG IP / Myc IP barcode read proportion) (log2 ratio); each designed protein is fused to an ALFA-tag nanobody in HEK293 cells to bring the named protein to FLAG-tagged glucokinase (GCK); Myc marks an untargeted standard; higher = target protein stabilised (more abundant)
# Details: target protein: 3xFLAG-MCP-GCK-ALFA reporter; HEK293 landing pad (RPLP)
# How it was run: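 Binders fused to an ALFA nanobody were recombined as a library into HEK293 landing-pad cells, which were induced with 2 μg mL^−1 doxycycline and then transfected to express a FLAG-tagged target and a Myc-tagged standard. After 48 h, circular RNA barcodes recovered by anti-FLAG and anti-Myc immunoprecipitation of lysates were reverse transcribed, amplified and sequenced. Each binder's target abundance is the median log2 ratio of FLAG to Myc barcode read proportions, from barcodes present at ≥10^−7 in both replicates, binders carrying ≥3 barcodes per replicate, a 10^−6 pseudocount and pooled replicates.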
# GABARAP, O95166, sequence (O95166 whole entry, the tested form may be a part): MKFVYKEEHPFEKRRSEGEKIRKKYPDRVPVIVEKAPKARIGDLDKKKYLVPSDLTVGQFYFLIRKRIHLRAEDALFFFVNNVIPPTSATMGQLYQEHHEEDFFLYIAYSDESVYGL
row,Binder,median log2 fold change
1,B1,0.261
2,B2,0.273
3,B3,-0.327
4,B4,0.344
5,B5,0.256
6,B6,-0.175
7,B7,-0.152
8,B8,0.199
9,B9,-0.303
10,B10,0.0997
11,B11,-0.0508
12,B12,-0.26
13,B13,0.612
14,B14,-0.315
15,B15,0.243
16,B16,0.235
17,B17,0.2
18,B18,0.0648
19,B19,0.276
20,B20,-0.404
21,B21,0.00329
22,B22,0.0492
23,B23,0.191
24,B24,0.0756
25,B25,-0.29
26,B26,-0.2
27,B27,0.115
28,B28,-0.311
29,B29,0.326
